Laboratory results published in the supplement of paper PMC4604168 (melanoma cell lines).
The other results are listed elsewhere or left out. Many values rest on one well or one pass, so single values are uncertain.

Key:
Assay in all cases: cell count relative to DMSO control; melanoma cells; higher = more viable cells
Settings in all cases: library dose: standard library concentration; 72 h
501Mel = test system: 501Mel
A101D = test system: A101D
A2058 = test system: A2058
A375 = test system: A375
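Also: cells treated in 1,536-well plates, then fixed and DAPI-stained, with nuclei counted from automated high-throughput microscope images.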

Compound: CNC(=O)c1cc(Oc2ccc(NC(=O)Nc3ccc(Cl)c(C(F)(F)F)c3)cc2)ccn1 [sorafenib] + COc1cc2ncnc(Nc3ccc(Oc4ccccc4)cc3)c2cc1OC [SrcI1] (first compound 2 µM, partner dose 10 µM)
- cell count (501Mel): 66.9%
- cell count (A101D): 61.3%
- cell count (A2058): 81.5%
- cell count (A375): 134%

Compound: CNC(=O)c1cc(Oc2ccc(NC(=O)Nc3ccc(Cl)c(C(F)(F)F)c3)cc2)ccn1 [sorafenib] + O=C(O)C(=O)Nc1sc2c(c1C(=O)O)CCNC2 [TCS401] (first compound 2 µM, partner dose 8.33333 µM)
- cell count (501Mel): 102%
- cell count (A101D): 81.6%
- cell count (A2058): 102%
- cell count (A375): 151%

Compound: CS(=O)(=O)CCNCc1ccc(-c2ccc3ncnc(Nc4ccc(OCc5cccc(F)c5)c(Cl)c4)c3c2)o1 [lapatinib] + CC(C)CCN1c2nc(Nc3cc(F)c(O)c(F)c3)ncc2N(C)C(=O)C1C [BID1870] (first compound 4 µM, partner dose 1 µM)
- cell count (501Mel): 50.2%
- cell count (A101D): 43.1%
- cell count (A2058): 74.7%
- cell count (A375): 118%

Compound: C[C@@H](Oc1cc(-c2cnn(C3CCNCC3)c2)cnc1N)c1c(Cl)ccc(F)c1Cl [Crizotinib] + CCCCCCCCCCCC1=C(O)C(=O)C=C(O)C1=O [Embelin] (first compound 1 µM, partner dose 6 µM)
- cell count (501Mel): 69.9%
- cell count (A101D): 63%
- cell count (A2058): 88.2%
- cell count (A375): 124%

Compound: CNC(=O)c1cc(Oc2ccc(NC(=O)Nc3ccc(Cl)c(C(F)(F)F)c3)cc2)ccn1 [sorafenib] + O=c1cc(-c2cccc3c2Sc2ccccc2S3)oc(N2CCOCC2)c1 [KU55933] (first compound 2 µM, partner dose 5 µM)
- cell count (501Mel): 93.6%
- cell count (A101D): 94.6%
- cell count (A2058): 92.5%
- cell count (A375): 126%

Compound: C=CCNC1=C2C[C@@H](C)C[C@H](OC)[C@H](O)[C@@H](C)/C=C(\C)[C@H](OC(N)=O)[C@@H](OC)/C=C\C=C(/C)C(=O)NC(=CC1=O)C2=O [Tanespimycin] + Oc1cc(-c2nc(-c3ccccc3)[nH]c2-c2ccncc2)ccc1Cl [L779450] (first compound 0.01 µM, partner dose 1 µM)
- cell count (501Mel): 72.6%
- cell count (A101D): 66%
- cell count (A2058): 93.1%
- cell count (A375): 106%

Compound: C[C@@H](Oc1cc(-c2cnn(C3CCNCC3)c2)cnc1N)c1c(Cl)ccc(F)c1Cl [Crizotinib] + O=S(=O)(c1ccccc1)N(CC(F)(F)F)c1ccc(C(O)(C(F)(F)F)C(F)(F)F)cc1 [T0901317] (first compound 1 µM, partner dose 7 µM)
- cell count (501Mel): 69.2%
- cell count (A101D): 83.2%
- cell count (A2058): 70.2%
- cell count (A375): 95.9%

Compound: CS(=O)(=O)CCNCc1ccc(-c2ccc3ncnc(Nc4ccc(OCc5cccc(F)c5)c(Cl)c4)c3c2)o1 [lapatinib] + COc1cc2ncnc(Nc3ccc(Oc4ccccc4)cc3)c2cc1OC [SrcI1] (first compound 4 µM, partner dose 10 µM)
- cell count (501Mel): 54.9%
- cell count (A101D): 7.66%
- cell count (A2058): 58.2%
- cell count (A375): 129%

Compound: C=CCNC1=C2C[C@@H](C)C[C@H](OC)[C@H](O)[C@@H](C)/C=C(\C)[C@H](OC(N)=O)[C@@H](OC)/C=C\C=C(/C)C(=O)NC(=CC1=O)C2=O [Tanespimycin] + COc1cc2ncnc(Nc3ccc(Oc4ccccc4)cc3)c2cc1OC [SrcI1] (first compound 0.01 µM, partner dose 10 µM)
- cell count (501Mel): 76%
- cell count (A101D): 68.5%
- cell count (A2058): 97.9%
- cell count (A375): 146%

Compound: CN1CCN(c2ccc3nc(-c4c(N)c5c(F)cccc5[nH]c4=O)[nH]c3c2)CC1 [Dovitinib] + Cc1cc([N+](=O)[O-])ccc1NS(=O)(=O)c1cc(Cl)ccc1Cl [FH535] (first compound 0.5 µM, partner dose 5 µM)
- cell count (501Mel): 63.6%
- cell count (A101D): 73.2%
- cell count (A2058): 22.8%
- cell count (A375): 66.4%

Compound: CNC(=O)c1cc(Oc2ccc(NC(=O)Nc3ccc(Cl)c(C(F)(F)F)c3)cc2)ccn1 [sorafenib] + Oc1cc(-c2nc(-c3ccccc3)[nH]c2-c2ccncc2)ccc1Cl [L779450] (first compound 2 µM, partner dose 1 µM)
- cell count (501Mel): 93.6%
- cell count (A101D): 72.3%
- cell count (A2058): 89.2%
- cell count (A375): 74.2%

Compound: CN1CCN(c2ccc3nc(-c4c(N)c5c(F)cccc5[nH]c4=O)[nH]c3c2)CC1 [Dovitinib] + c1cc(-c2cnn3cc(-c4ccc(OCCN5CCCCC5)cc4)cnc23)ccn1 [Dorsomorphin] (first compound 0.5 µM, partner dose 2 µM)
- cell count (501Mel): 53.7%
- cell count (A101D): 57.1%
- cell count (A2058): 23.8%
- cell count (A375): 66.4%

Compound: CNC(=O)c1cc(Oc2ccc(NC(=O)Nc3ccc(Cl)c(C(F)(F)F)c3)cc2)ccn1 [sorafenib] + COC(=O)c1sccc1S(=O)(=O)Nc1ccc(Nc2ccccc2)cc1OC [GSK0660] (first compound 2 µM, partner dose 5 µM)
- cell count (501Mel): 68.9%
- cell count (A101D): 88.4%
- cell count (A2058): 88.7%
- cell count (A375): 93%

Compound: CNC(=O)c1cc(Oc2ccc(NC(=O)Nc3ccc(Cl)c(C(F)(F)F)c3)cc2)ccn1 [sorafenib] + Cc1cc([N+](=O)[O-])ccc1NS(=O)(=O)c1cc(Cl)ccc1Cl [FH535] (first compound 2 µM, partner dose 5 µM)
- cell count (501Mel): 75.6%
- cell count (A101D): 42.2%
- cell count (A2058): 71.6%
- cell count (A375): 89.2%

Compound: CS(=O)(=O)CCNCc1ccc(-c2ccc3ncnc(Nc4ccc(OCc5cccc(F)c5)c(Cl)c4)c3c2)o1 [lapatinib] + O=C(Nc1ccccc1)c1cc([N+](=O)[O-])ccc1Cl [GW9662] (first compound 4 µM, partner dose 10 µM)
- cell count (501Mel): 45.6%
- cell count (A101D): 71.1%
- cell count (A2058): 74.9%
- cell count (A375): 127%

Compound: CN1CCN(c2ccc3nc(-c4c(N)c5c(F)cccc5[nH]c4=O)[nH]c3c2)CC1 [Dovitinib] + CC(C)CCN1c2nc(Nc3cc(F)c(O)c(F)c3)ncc2N(C)C(=O)C1C [BID1870] (first compound 0.5 µM, partner dose 1 µM)
- cell count (501Mel): 52%
- cell count (A101D): 75.6%
- cell count (A2058): 24.9%
- cell count (A375): 79.7%

Compound: CS(=O)(=O)CCNCc1ccc(-c2ccc3ncnc(Nc4ccc(OCc5cccc(F)c5)c(Cl)c4)c3c2)o1 [lapatinib] + N#Cc1c(O)c2c(-c3ccc(-c4ccccc4O)cc3)csc2[nH]c1=O [A769662] (first compound 4 µM, partner dose 10 µM)
- cell count (501Mel): 65.7%
- cell count (A101D): 90.8%
- cell count (A2058): 78.8%
- cell count (A375): 131%

Compound: CN1CCN(c2ccc3nc(-c4c(N)c5c(F)cccc5[nH]c4=O)[nH]c3c2)CC1 [Dovitinib] + O=C(O)C(=O)Nc1sc2c(c1C(=O)O)CCNC2 [TCS401] (first compound 0.5 µM, partner dose 8.33333 µM)
- cell count (501Mel): 66.7%
- cell count (A101D): 60.5%
- cell count (A2058): 41.6%
- cell count (A375): 97.3%

Compound: CNC(=O)c1cc(Oc2ccc(NC(=O)Nc3ccc(Cl)c(C(F)(F)F)c3)cc2)ccn1 [sorafenib] + O=S(=O)(c1ccccc1)N(CC(F)(F)F)c1ccc(C(O)(C(F)(F)F)C(F)(F)F)cc1 [T0901317] (first compound 2 µM, partner dose 7 µM)
- cell count (501Mel): 79%
- cell count (A101D): 86.3%
- cell count (A2058): 119%
- cell count (A375): 119%

Compound: C[C@@H](Oc1cc(-c2cnn(C3CCNCC3)c2)cnc1N)c1c(Cl)ccc(F)c1Cl [Crizotinib] + CCN(CC)CCCCNc1ncc2cc(-c3cc(OC)cc(OC)c3)c(NC(=O)NC(C)(C)C)nc2n1 [PD173074] (first compound 1 µM, partner dose 0.5 µM)
- cell count (501Mel): 85.1%
- cell count (A101D): 108%
- cell count (A2058): 94.9%
- cell count (A375): 117%

Compound: C[C@@H](Oc1cc(-c2cnn(C3CCNCC3)c2)cnc1N)c1c(Cl)ccc(F)c1Cl [Crizotinib] + c1cc(-c2cnn3cc(-c4ccc(OCCN5CCCCC5)cc4)cnc23)ccn1 [Dorsomorphin] (first compound 1 µM, partner dose 2 µM)
- cell count (501Mel): 51.4%
- cell count (A101D): 69.5%
- cell count (A2058): 46.6%
- cell count (A375): 59.7%

Compound: CS(=O)(=O)CCNCc1ccc(-c2ccc3ncnc(Nc4ccc(OCc5cccc(F)c5)c(Cl)c4)c3c2)o1 [lapatinib] + Cc1cc([N+](=O)[O-])ccc1NS(=O)(=O)c1cc(Cl)ccc1Cl [FH535] (first compound 4 µM, partner dose 5 µM)
- cell count (501Mel): 57.3%
- cell count (A101D): 62.2%
- cell count (A2058): 61.4%
- cell count (A375): 106%
